Read counts are not given, so values of variants with three or more changes are uncertain.
B1: LINE1-mini (parent)
chain: GGCAGAGCUCAACACAGCGUGGCAAAGUGGCUGUGGCUAGACUGCC

Variants of: B1
Test: self-cleavage, relative activity (ratio to wild type); higher = more cleavage; in vitro, sequencing; the parent is a self-cleaving ribozyme

Variant	self-cleavage
U9G G21U A26U G40U	0.03
U9C G33A A39C G40U	0.02
U9G C23G U28G U34G	0.02
C10A A14G G17U A24G	0.01
U9C G29C G33U	0.03
U9C G17C C18G	0.02
U9G G17A G33C	0.02
U9G U20C A41U C45G	0.05
U9A U20A G21A G33U U34A G44A	0.2
U9A U34C U38A	0.02
U9C A14G G22C	0.03
U9C C13A C15G C31G	0
C10A A12C A24C A26C G30U U43A	0
U9C A25G U34C	0.03
U9C C13G A26C U34A	0.01
U9G G17U G22U A25U	0.15
U9G G21C C31G	0.05
U9A G21U G27U G36A	0.41
U9C A14C G27U G33A G40A A41G U43G	0.01
U9G A26G G35A G36A G44U	0.01
U9G A12C C13U G29C	0.01
C10A A12U C13U G30A	0.04
U9G A11C U28G G29A G35C	0.01
U9G C10U C23G	0.34

Variant	self-cleavage
C10A A14G A16G G44U	0.03
U9C U34G C45G	0.01
U9C G21U U28C	0
C10A A14G G17A G22U C45A	0.03
U9C A14U G22A C23G A26C G33U C42A	0.01
U9G C23G G36U C46G	0.09
U9C C15G G21A G44U	0.01
U9G C23U G29C U34G	0.08
U9A G27U G35A	0.04
U9G U34C G35C G36A U38A	0.02
C10A A11C C31G U32G	0.03
C10A A16U C23A	0.02
U9G A11C A25C C46U	0
U9G C13A C45U	0.01
C10A A11C A12U	0.02
U9A G21U A24U A25C G35C	0.02
U9C A16C G21C G22A A41G	0.01
C10A A11C G30U G35U A41G C46G	0.03
U9C C10A G33A A41U	0.02
U9A G19U U20A C46U	0.22
C10A A16U C18A A41G	0.04
U9C A12U A26G	0.03
C10A A11U A12G C37A	0.01
C10A A12U A14G	0.05

Variant	self-cleavage
C10A A25C A26G C46G	0
U9G U28G G40U	0.04
U9G G19C G22C	0.05
C10A A11U C15A A25C C37G	0.01
U9G A16G U32A	0.22
C10A A12C U28C	0.02
U9C U20C U38C	0
C10A A16U G21U	0.05
C10A A14C C15G A16G	0.01
U9G G30A G33A C37G C46U	0.01
C10A A24C G40U	0
U9G G29U C37U	0.06
C10A A14G C18A A25U U28A C37A	0.01
C10A A12G G40A G44C	0
U9C C13G U32A G36C C46U	0.01
U9G G19C G21U C37A A41U	0.15
U9G G19U G35A	0.05
U9C A11G G36C	0.02
U9C G22U A41C	0.04
U9C G19C U28A	0.03
C10A A24C U28G U34A C46G	0
U9G C15U A24C G35U G44U	0.11
U9G C10G G19U U28A G29A	0.02
U9C A26C G40U C46G	0

Variant	self-cleavage
C10A A14G C37U	0.01
U9G C18U G21U G33C G35U	0.03
U9G C10G C13G A16U U20G G36A U43C	0.01
U9G A14G A16G U38A U43A	0
C10A A12C A16G G17U	0.01
U9G C13A C15A G21U C46G	0
U9C A26U C37A U38C	0.02
U9G C15G C23U	0.05
U9A G22C G35U U38A	0.05
U9G G29U A41U	0.09
U9C A12C U20C U28A G29C	0
U9A U38G C46A	0.15
U9G A12U G17C A25G G33C	0.01
C10A A11U G22A G33C C45A	0.01
C10A A11G U32A G44U	0.05
C10A A11C C15A G36A	0.06
C10A A14U G17C G21C	0.02
U9G C18U C23U G40A	0.02
U9C C18U G30U	0
U9C A12G U34A C37G U38C A39G	0.01
U9G A24G G36U	0.02
U9C C10G C37U	0.01
U9G C23U C42U	0.07
C10A A11U U34G	0.09

Variant	self-cleavage
U9C G19A U38C C42G	0.04
U9C G22A G33A C37U	0.01
U9A U20A G33U	0.06
U9G A26G C45A	0.05
U9G U20G C46G	0.01
C10A A14C A25U A26G A41C	0.02
U9G A25U U28G	0.07
U9G G21A G36C	0.04
U9C G19U G35A	0.03
U9C A12G C13G C23U	0.01
C10A A12C G29U U38A	0
U9C A12G G36C G44A	0.02
U9A G21C A39U	0.03
U9C A14C C15U U28A U38G	0
U9G A12C A14G G21U G27C G33U	0.01
U9G A14C C46G	0.06
U9C A14C A41U C45A	0.01
U9C G27C G35U G36C C46A	0.01
U9G G17A G27U	0.12
U9A G27A U32A	0.13
U9G C15A G19U G29C C37G G40A	0.08
C10A A11C A12U A39C	0.01
U9A G36U C45U	0.48
C10A A11C G19U	0.01

Variant	self-cleavage
U9C G17U A26U	0.02
C10A A12U C13U	0.02
U9G A12U U28A G30C C31G	0.02
U9G A26G G27U	0.04
U9G C15U U34C	0.01
C10A A11U C15A C45A	0
C10A A12C G27U G44A C45U	0.01
U9G A26G G36C	0.02
C10A A16U A26U G27U G36A U38G	0.02
U9G C23U G36A	0.11
U9C A11C C15U G19A C31G U32C U34A C46A	0
U9A G29U C37A A41C	0.04
U9C G21U G30U C31A C42U	0.02
U9G A11G G30A	0.01
U9G G21U A41G	0.05
C10A A16C A39C	0.01
U9G A24C U38A	0.12
U9C C10A G33A A39C	0.03
C10A A25C U38G	0.01
U9G A11U C31G U32G C37G	0.01
U9C G22C C37G	0.02
C10A A12C G17A	0.01
U9G G17A U32A C42A	0.06
U9A G19U U20A	0.04

Variant	self-cleavage
U9C A14G U20G G44A C45G	0
C10A A12G U28G	0.03
U9C C10G G36U C45G	0.04
U9G G27U C37U	0.06
U9G A11C C15G A25C G30C A41G	0.01
C10A A12G A25U G33C G36U	0.06
U9G C10A C18G C31G	0.02
C10A A11U G30C C31A G33U	0.02
C10A A14G U28G G36A	0.03
U9G C13A A41U	0.05
U9C G35A A39C	0.01
U9C G35C G40A C42G	0.01
C10A A12U G36U	0.03
C10A A11G G19U	0.01
U9G A14G G29U C45G	0.02
U9A G30U G36U	0.06
U9G C15U A24G U28G G36U	0.15
C10A A11C G17C U20A U38A A41G G44C	0
U9C A41C C42U G44U C45G	0.04
U9C A16U G33C	0
C10A A14C G29C C37G	0.01
U9C G36A A41C U43A	0.02
U9G C13A U20G G21U	0.07

Source: the RNAGym collection of RNA variant scans (doi:10.7554/elife.90254)
